# Reference: PubChem BioAssay AID1461 (National Center for Advancing Translational Sciences (NCATS), 2008)
# The campaign covered roughly 220,000 compounds. About 2,300 (1%) were called active. Inconclusive means that the source gave no clear call. Such entries were picked first, then a sample of the others. Calls follow the shape of the dose curve; as a rule, active = well fitted inhibition curve with a large enough effect; inconclusive = small, poorly fitted or top-dose-only effect, or effect the other way; inactive = no such curve, though single readings can be large or run the other way. Where the call is inconclusive, the potency comes from a doubtful curve fit.
# Biological target: Neuropeptide S receptor (Homo sapiens) (UniProt Q6W5P4)
# Assay: qHTS Assay for Antagonists of the Neuropeptide S Receptor: cAMP Signal Transduction; also: nearly all actives have a fitted effect of over 50% in size
# Settings: CHO-NPSR cells, cAMP TR-FRET, antagonist mode; activity change, negative = inhibition: at 38.3 µM (top of the series) unless noted
# % is scaled to controls: 0 for no effect and ±100 for the full control effect; potency is read from the fitted curve at half-maximal effect; tags tell the direction and shape of the fitted curve.
# UniProt Q6W5P4, sequence (Q6W5P4 whole entry, looked up): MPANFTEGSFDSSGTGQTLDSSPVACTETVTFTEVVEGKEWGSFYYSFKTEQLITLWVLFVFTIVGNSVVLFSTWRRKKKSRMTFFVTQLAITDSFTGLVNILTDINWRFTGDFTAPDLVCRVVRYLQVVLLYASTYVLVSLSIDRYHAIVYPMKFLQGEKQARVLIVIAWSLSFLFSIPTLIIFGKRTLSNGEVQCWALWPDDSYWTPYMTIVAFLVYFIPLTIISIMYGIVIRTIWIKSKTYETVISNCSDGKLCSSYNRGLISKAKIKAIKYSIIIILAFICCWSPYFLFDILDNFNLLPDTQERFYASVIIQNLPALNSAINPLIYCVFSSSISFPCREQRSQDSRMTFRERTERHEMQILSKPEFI
SMILES,Potency,"activity change, negative = inhibition"
Cc1ccc(C(=O)Nc2nnc(NC(=S)Nc3ccccc3)s2)cc1,"inconclusive: 12.6 µM [activator, single point]",–
CCN(CC)S(=O)(=O)c1cccc(-c2nnc(SCc3ncc(-c4ccccc4)o3)n2C)c1,"inconclusive: 10 µM [inhibitor, partial curve]",–
Cc1cc(C)c(NC(=O)c2oc3ccccc3c2COc2ccccc2)c(C)c1,"inconclusive: 10 µM [inhibitor, partial curve]",–
CSc1nccc(N2CCN(c3ccc(F)cc3)CC2)n1,–,inactive: -10.7%
COc1ccc2[nH]c(=O)c(CNc3ccccc3)cc2c1,–,inactive: -12.8% [at 46.1 µM]
Cc1ccc(-c2noc(CSc3nnc(Cc4ccccc4)n3-c3ccc(Cl)cc3)n2)cc1,"inconclusive: 10 µM [inhibitor, single point]",–
CCO/N=C(\C)c1c(O)c2ccccc2n(C)c1=O,–,inactive: 11%
O=C(O)c1ccnc(C(=O)O)c1,–,inactive: -2.41% [at 46.1 µM]
O=C(Cc1cccs1)N1CCC(c2nc3c(nnn3Cc3ccccc3)c(=O)[nH]2)CC1,"inconclusive: 20 µM [inhibitor, partial curve]",–
O=C(Cc1ccccc1)Nc1nc(=O)c2ccccc2s1,"inconclusive: 25.1 µM [activator, single point]",–
COc1ccc(NC(=O)CSc2nc(-c3ccc(C)cc3)cc(C(F)(F)F)c2C#N)cc1,"inconclusive: 12.6 µM [inhibitor, single point]",–
Cc1[nH][nH]c(=O)c1C(c1c(C)[nH][nH]c1=O)c1cn(Cc2ccccc2Cl)c2ccccc12,–,inactive: 11.6%
CC1=C(C(=O)Nc2ccc(Cl)cc2)C2(CCCCC2)C(C(N)=O)C(=S)N1 (configuration not stated),–,inactive: -3.88%
O=C(N/N=C/C1C(c2ccccc2)C1(Cl)Cl)c1cccc(Cl)c1 (configuration not stated),"inconclusive: 1.26 µM [inhibitor, full curve, poor fit]",–
S=C(Nc1ccccc1Cl)N(Cc1ccccc1)Cc1ccccn1,"inconclusive: 12.6 µM [inhibitor, single point]",–
Cc1ccccc1C(=O)N1CCN(C(c2ccccc2)c2ccccc2)CC1,"inconclusive: 12.6 µM [activator, single point]",–
Cc1nc2c(-c3ccc(F)cc3)c(C)nn2c(C)c1CCC(=O)N1CCN(c2ccccn2)CC1,–,inconclusive: -32.5% [inhibitor] [at 46.1 µM]
Cc1ccc(S(=O)(=O)NCCCCCC(=O)Nc2nccs2)cc1,"inconclusive: 0.004 µM [inhibitor, full curve, poor fit]",–
O=C1CC(SCCO)C(=O)N1c1ccc(Oc2ccccc2)cc1 (configuration not stated),"inconclusive: 5.01 µM [inhibitor, single point]",–
CCOC(=O)C1=C(C)NC(=S)NC1C (configuration not stated),–,inactive: 11.9%
c1ccc2c(-c3c[nH]c4ccccc34)c3ccccc3nc2c1,"inconclusive: 10 µM [inhibitor, single point]",–
CCN(CC)c1ccc(NC(=O)c2c(OC)cccc2OC)c(C)c1,"inconclusive: 0.0251 µM [inhibitor, full curve, poor fit]",–
CCc1nn(C(C)C(=O)Nc2cccc(C)c2C)c(=O)c2cc3occc3n12 (configuration not stated),"inconclusive: 2.51 µM [inhibitor, full curve, poor fit]",–
Cc1ccc(-c2cc(C(=O)Nc3ccc(S(=O)(=O)Nc4cc(C)on4)cc3)c3ccccc3n2)c(C)c1,active: 10 µM,–

SMILES,Potency,"activity change, negative = inhibition"
NC(N)=N/N=C/c1ccc(OCc2ccccc2Cl)cc1,"inconclusive: 3.16 µM [inhibitor, single point]",–
CN(C)Cc1cnc2ccc(Cl)cn12,–,inactive: 2.78% [at 46.1 µM]
COc1cccc(OCCn2cc(C(=O)c3ccco3)c3ccccc32)c1,"inconclusive: 1.26 µM [inhibitor, single point]",–
O=C(N/N=C/c1ccc(OCC(=O)N2CCCCC2)cc1)c1ccccc1,–,inactive: -9.17% [at 46.1 µM]
COc1ccc(Cl)cc1NC(=O)CN1CCC(n2nnc3cc(C)ccc32)CC1,"inconclusive: 10 µM [inhibitor, partial curve]",–
COC(=O)c1cc(=O)n(CCc2ccc(OC)c(OC)c2)c(=Nc2ccc(F)c(Cl)c2)s1,"inconclusive: 10 µM [inhibitor, single point]",–
COc1ccc(-c2nn(-c3ccccc3)cc2/C=N/NC(=O)c2ccc(Br)o2)cc1,active: 6.31 µM,–
Nc1nc(Nc2ccccc2Cl)cc(=O)[nH]1,–,inactive: 15.3%
COc1cc(NS(=O)(=O)c2ccc(C)cc2)c2ncccc2c1,"inconclusive: 3.98 µM [inhibitor, partial curve]",–
O=C(O)c1ccc2c(=O)n(-c3ccccc3)c(=S)[nH]c2c1,–,inactive: 24.3%
CCOC(=O)c1nnc(-c2ccccc2)nc1Oc1ccccc1Cl,"inconclusive: 25.1 µM [inhibitor, single point]",–
C=CCn1c(SCCN2C(=O)c3ccccc3C2=O)nc2scc(-c3ccccc3)c2c1=O,active: 12.6 µM,–
C/C(=N\NS(=O)(=O)c1ccc(C)c([N+](=O)[O-])c1)c1cc2ccccc2o1,–,inactive: -7.53% [at 46.1 µM]
CC1(C)OC(=O)N(c2ccccc2)C12C=Cc1cc(Br)ccc1O2 (configuration not stated),"inconclusive: 10 µM [inhibitor, single point]",–
COc1ccc(-c2csc(N(CCc3ccccc3)C(=O)COc3ccccc3)n2)cc1,"inconclusive: 12.6 µM [inhibitor, partial curve, poor fit]",–
O=C(C#Cc1cccc([N+](=O)[O-])c1)c1ccccc1,active: 3.16 µM,–
COc1cc(CC(=O)Nc2ccc(Cl)c(C(F)(F)F)c2)cc(OC)c1OC,–,inactive: -17.2%
CCCCc1ccc(/C=C(\C#N)C(N)=S)s1,"inconclusive: 12.6 µM [inhibitor, single point]",–
c1ccc(CNCc2ccc3c(c2)OCO3)nc1,–,inactive: 5.88% [at 46.1 µM]
COc1ccc(CNS(=O)(=O)c2ccc(F)c(C(=O)Nc3ccccc3OC)c2)cc1,–,inactive: -7.84%
CC1C/C(=N\Nc2ccc(S(N)(=O)=O)cc2[N+](=O)[O-])CC(C)(C)C1 (configuration not stated),"inconclusive: 12.6 µM [inhibitor, single point]",–
Cc1cc(C)c(C)c(OCC(=O)NCCN(C)C)c1,"inconclusive: 3.98 µM [inhibitor, single point]",–
O=Cc1c(Cl)nc2ccccn2c1=O,"inconclusive: 25.1 µM [inhibitor, single point]",–
